Reference: PubChem BioAssay AID624417 (National Center for Advancing Translational Sciences (NCATS), 2012)
Among all 410,000 compounds or so, about 6,400 (1.6%) were called active. The inconclusive results got no clear call from the source; some entries with a clear call stand among them for comparison. The call rests on the fitted dose curve; in most records, active means well fitted inhibition curve with a large enough effect; inconclusive means small, poorly fitted or top-dose-only effect; inactive means no such curve, though single readings can be large or run the other way. Potencies of inconclusive entries are left out as doubtful fits.

target: Glucagon-like peptide 1 receptor (Homo sapiens) (UniProt P43220); test: qHTS of GLP-1 Receptor Inverse Agonists (Inhibition Mode); details: HEK293 GLP-1R CRE-luciferase, luminescence, 24 h, GLP-1R form is constitutively active; series mostly up to 38.3 µM; further: nearly all actives have a fitted effect of over 55% in size
UniProt P43220, sequence (P43220 whole entry, looked up): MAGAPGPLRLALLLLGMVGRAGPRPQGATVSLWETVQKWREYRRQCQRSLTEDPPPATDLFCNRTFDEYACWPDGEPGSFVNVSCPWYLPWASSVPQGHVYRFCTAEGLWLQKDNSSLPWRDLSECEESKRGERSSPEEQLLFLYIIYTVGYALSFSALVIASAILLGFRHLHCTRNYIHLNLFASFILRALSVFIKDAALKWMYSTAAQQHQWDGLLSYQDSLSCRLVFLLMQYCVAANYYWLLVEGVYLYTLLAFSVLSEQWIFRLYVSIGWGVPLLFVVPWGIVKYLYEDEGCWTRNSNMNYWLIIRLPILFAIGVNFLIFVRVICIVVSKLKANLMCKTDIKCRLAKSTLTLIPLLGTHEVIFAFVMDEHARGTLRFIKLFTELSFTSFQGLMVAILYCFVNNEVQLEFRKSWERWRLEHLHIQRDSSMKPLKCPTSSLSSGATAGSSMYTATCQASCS
Summary of the method: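 Luminescence readout: a drop in cAMP-driven luciferase signal flags inverse agonism at a constitutively active GLP-1R stably expressed in HEK293. Compound exposure lasted 24 hr at 37 deg C, 5% CO2.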
Potency means the concentration at half of the fitted maximal effect; tags describe the fitted curve by direction and shape.

SMILES	Potency
COc1ccc(C(=O)C2CCCN(Cc3cccn3-c3ccccn3)C2)cc1F (stereo not drawn)	inconclusive [inhibitor, partial curve, poor fit]
CC1(C)C(N(O)C(=O)Nc2ccc(Cl)cc2)N(c2ccc(Cl)cc2)C(=O)N1CC(=O)NN (stereo not drawn)	inconclusive [inhibitor, single point]
Cc1ccc(C(=O)O/N=C/c2c(C)nn(C)c2Cl)cc1	inactive
O=c1[nH]c(CN2CCN(c3ccccc3O)CC2)nc2scc(-c3ccccc3Cl)c12	inconclusive [inhibitor, partial curve, poor fit]
C=CCOc1ccc(C2C(C#N)=C(N)N(Nc3ccccc3)C3=C2C(=O)CCC3)cc1OC (stereo not drawn)	inconclusive [inhibitor, single point]
COC(=O)[C@@]1(Cc2ccc(F)cc2)[C@H]2c3cc(C(=O)N(C)C)n(Cc4ccsc4Br)c3C[C@H]2CN1C(=O)c1ccccc1	inconclusive [inhibitor, single point]
CCCCCN1CC(=O)N2C(C)c3[nH]c4ccccc4c3C[C@H]2C1=O (stereo partly drawn)	inconclusive [inhibitor, single point]
COc1cccc(NC(=O)C(Sc2nnc(-c3ccncc3)n2-c2ccc(Cl)cc2)c2ccccc2)c1 (stereo not drawn)	inconclusive [inhibitor, partial curve, poor fit]
CCCCOc1ccccc1-c1ccccc1CN1[C@@H](C(C)C)COCCS1(=O)=O	inconclusive [inhibitor, single point]
COc1ccccc1NNC(=O)c1cc(C(C)(C)C)nn1Cc1ccccc1	inconclusive [inhibitor, full curve]
Cc1cccc(NC(=O)CSc2nc3ccccc3nc2N2CCCCC2)c1C	inactive
C/C(=N/NC(=O)C1CCCN1C(=O)c1ccc([N+](=O)[O-])cc1)c1ccc(Br)cc1 (stereo not drawn)	inconclusive [inhibitor, single point]
COc1cc(NC(=O)C(Cc2ccccc2)NS(=O)(=O)c2cccc3nsnc23)cc(OC)c1 (stereo not drawn)	inconclusive [inhibitor, partial curve]
CCOc1ccc(N(CC(=O)Nc2ccccc2CC)S(=O)(=O)c2c(C)noc2C)cc1	inconclusive [inhibitor, partial curve, poor fit]
NC(=O)c1ccccc1NC(=O)CN1CCN(Cc2ccc(Cl)cc2Cl)CC1	inconclusive [inhibitor, partial curve, poor fit]
OCC1(CCOc2ccccc2)CCN(Cc2cc(Cl)ccc2O)CC1	inconclusive [inhibitor, full curve, poor fit]
FC(F)Oc1ccc(/C=N/n2c(Cc3ccc(Br)cc3)n[nH]c2=S)cc1	inactive
CCOc1ccc2nc(NC(=O)C(CCSC)NS(=O)(=O)c3cccs3)sc2c1 (stereo not drawn)	inconclusive [inhibitor, partial curve, poor fit]
Cc1occc1C(=O)N/N=C/c1ccc(Br)s1	inactive
COc1cccc(Cn2c(=O)n(CCc3ccccc3)c(=O)c3c2c2cc(OC)ccc2n3C)c1	inactive
Fc1ccc(NCc2nnc(SCc3nnc(-c4ccccc4)o3)n2Cc2ccccc2)cc1	inconclusive [inhibitor, partial curve, poor fit]

SMILES	Potency
Clc1ccc(CN2CCC(CNc3ncnc4onc(-c5ccc(Cl)cc5)c34)CC2)cc1	inconclusive [inhibitor, single point]
CCCCCN1C/C=C\C(c2ccc(OC)cc2)N(Cc2ccc(F)cc2)C(=O)C1 (stereo not drawn)	inconclusive [inhibitor, single point]
O=C(CSCc1ccc(F)cc1)N1CCN(c2ccc(Cl)cc2)CC1	inconclusive [inhibitor, single point]
Oc1ccc(/C=N/N2CCCCC2)cc1O	inactive
O=C(NCCc1ccccc1)c1ccc2c(c1)N(Cc1ccccc1)CCS2	inconclusive [inhibitor, full curve, poor fit]
O=C(Nc1c(F)cccc1F)c1ccc2c(c1)CCN2S(=O)(=O)c1ccccc1	inconclusive [inhibitor, single point]
Oc1ccccc1Nc1nc(NCc2ccco2)c2ccccc2n1	inconclusive [inhibitor, single point]
CCC(CO)Oc1cc(NCc2ccncc2)c2ncn(C(C)C)c2c1 (stereo not drawn)	inactive
C=CCN1C(=O)c2cccc3c(N4CCCCC4)ccc(c23)C1=O	inactive
O=S(=O)(NC1c2cccc3cccc(c23)C1Sc1ncccn1)c1ccc(Cl)cc1 (stereo not drawn)	inconclusive [inhibitor, partial curve, poor fit]
Cc1ccc(NC(=O)c2c(Cl)n(C)c3ccccc23)cc1	inconclusive [inhibitor, partial curve]
COc1ccccc1C(=O)N(Cc1nc(-c2ccc(Cl)cc2)no1)C(C)C	inconclusive [inhibitor, partial curve, poor fit]
Cc1ccc2c(c1)c(/C=C/c1cc[n+](C)cc1)c(C)n2C	inconclusive [inhibitor, partial curve, poor fit]
CCCN(CC(=O)Nc1ccccc1C)C(=O)c1ccc(N2CCCC2)c([N+](=O)[O-])c1	inactive
CSc1ccc(/C=C(/NC(=O)c2ccco2)C(=O)N2CCCCCC2)cc1	inconclusive [inhibitor, single point]
COc1ccccc1N1CCN(C(c2cccs2)c2nnnn2C2CCCC2)CC1 (stereo not drawn)	inconclusive [inhibitor, single point]
CCC(C)[C@H](NC(=O)NC1CCCc2ccccc21)C(=O)OC (stereo partly drawn)	inconclusive [inhibitor, single point]
COCCNC(=O)c1cccc(OC2CCN(Cc3ccc(C(=O)OC)cc3)CC2)c1	inactive
CCN(CC)C(=O)c1sc2c(c1C)c(=O)n(CCc1ccccc1)c(=O)n2Cc1ccc(F)cc1Cl	inactive
Cn1c(NCC(O)c2ccccc2)nc2c1c(=O)n(Cc1ccc(Cl)c(Cl)c1)c(=O)n2C (stereo not drawn)	active: 3.16 µM
Cc1ccc2cccc(NC(=S)NC(=O)c3ccnn3C)c2n1	inconclusive [inhibitor, single point]

SMILES	Potency
CCOC(=O)CSc1ccc(-c2nc3ccccc3[nH]2)cn1	inactive
Cc1cc(OCC(=O)NCC(c2ccc(F)cc2)N2CCOCC2)ccc1Cl (stereo not drawn)	inconclusive [inhibitor, single point]
CCOc1ccc(CCNC(=O)C(C)N2C(=O)CC(C)(C)Sc3ccccc32)cc1 (stereo not drawn)	inconclusive [inhibitor, partial curve, poor fit]
Cc1ccc(C(=O)NCCCc2ccccc2)c(C)c1	inactive
CN1CCN(C(=O)CCN2C(=O)/C(=C\c3ccc(Cl)cc3Cl)SC2=S)CC1	inconclusive [inhibitor, single point]
Cc1cnc(NC(=O)CC(C)c2ccccc2)s1 (stereo not drawn)	inconclusive [inhibitor, partial curve, poor fit]
COc1cc(OC)c(OC)cc1/C=C/c1nc2cc3ccccc3cc2c(=O)n1-c1ccc(F)c(Cl)c1	inconclusive [inhibitor, partial curve, poor fit]
CC1Cc2ccccc2N1S(=O)(=O)c1cccc(C(=O)Nc2cccnc2)c1 (stereo not drawn)	inconclusive [inhibitor, partial curve, poor fit]
COc1ccc(-c2ccc3[nH]c4c(c3c2)CCN2C(=O)[C@@H]([C@H](C)O)[C@@H](N(C)C(=O)Nc3ccccc3)C[C@@H]42)cc1	inconclusive [inhibitor, partial curve, poor fit]
O=C(Nc1ccccc1)c1nnsc1S(=O)c1ccc(Cl)cc1 (stereo not drawn)	inconclusive [inhibitor, single point]
Cc1ccc(N2CCN(C(=O)c3ccccc3F)CC2)c(C)c1	inconclusive [inhibitor, single point]
Clc1ccc2ncc(-c3nnnn3-c3ccccc3)c(-c3ccccc3)c2c1	inconclusive [inhibitor, partial curve, poor fit]
CCN1CCCc2cc(CN(CCN3CCOCC3)C(=S)Nc3ccc(C)cc3)ccc21	inconclusive [inhibitor, partial curve, poor fit]
CCN(CC)/C(Sc1ccccc1)=C(\C(Cl)=C(Cl)Cl)[N+](=O)[O-]	inactive
O=[N+]([O-])c1cc(S(=O)(=O)N2CCCCC2)ccc1NCc1cccc(Cl)c1	inconclusive [inhibitor, single point]
CCCC1C(=O)Nc2ccccc2N1C(=O)c1ccc(C(C)(C)C)cc1 (stereo not drawn)	inconclusive [inhibitor, partial curve, poor fit]
Nc1nonc1-n1nnc(C(=O)N/N=C/c2ccc(OCc3ccccc3)cc2)c1CN1CCCCC1	inconclusive [inhibitor, single point]
O=C(O)CC(NC(=O)C12CC3CC(CC(C3)C1)C2)c1cc([N+](=O)[O-])ccc1Cl (stereo not drawn)	inactive
COc1ccc(-c2n[nH]c(=S)n2-c2ccccc2C)cc1	inactive
CCOc1ccc(-c2cc(C(=O)NCc3ccccc3Cl)c3ccccc3n2)cc1	inactive
N#Cc1c2n(c3c(=O)n(Cc4ccc(Cl)cc4)cnc13)CCCCC2	inconclusive [inhibitor, single point]
